In PubChem BioAssay AID2147 (National Center for Advancing Translational Sciences (NCATS), 2009):
Hit rate of the full screen: of about 230,000 compounds, about 3,600 (1.6%) were called active. Inconclusive results, whose numbers are uncertain, are shown with a selection of clear calls. The call rests on the fitted dose curve; in most records, active means well fitted inhibition curve with a large enough effect (not every such curve was filed as active); inconclusive means small, poorly fitted or top-dose-only effect, or another doubt; inactive means no such curve, though single readings can be large or run the other way. A potency beside an inconclusive call is a rough fit, not a confirmed value.

biological target: Lysine-specific demethylase 4E (Homo sapiens) (UniProt B2RXH2); assay: qHTS Assay for Inhibitors of Human Jumonji Domain Containing 2E (JMJD2E); conditions: JMJD2E catalytic domain, FDH-coupled NADH fluorescence (FDH is formaldehyde dehydrogenase); series mostly up to 57.1 µM
Chain of UniProt B2RXH2 (B2RXH2 whole entry, looked up, the tested form may be a part): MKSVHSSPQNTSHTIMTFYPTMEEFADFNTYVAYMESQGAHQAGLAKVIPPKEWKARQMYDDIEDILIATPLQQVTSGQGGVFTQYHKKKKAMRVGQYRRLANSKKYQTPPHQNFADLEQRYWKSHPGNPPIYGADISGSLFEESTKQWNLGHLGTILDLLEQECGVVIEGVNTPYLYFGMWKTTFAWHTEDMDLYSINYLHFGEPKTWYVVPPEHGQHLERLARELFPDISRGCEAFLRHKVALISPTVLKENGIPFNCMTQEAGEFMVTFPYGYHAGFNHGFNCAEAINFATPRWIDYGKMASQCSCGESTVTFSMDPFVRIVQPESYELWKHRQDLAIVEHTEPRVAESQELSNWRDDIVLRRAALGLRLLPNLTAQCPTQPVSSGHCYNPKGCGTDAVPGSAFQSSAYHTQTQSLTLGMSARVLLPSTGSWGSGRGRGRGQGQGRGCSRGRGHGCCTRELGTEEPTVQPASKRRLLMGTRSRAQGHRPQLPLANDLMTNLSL
Further: nearly all actives have a fitted effect of over 50% in size.
Potency means the concentration at half of the fitted maximal effect; tags describe the fitted curve by direction and shape.

Row | Structure (SMILES) | Potency
1 | CC(C)(C)NC(=O)c1sccc1C(=O)O | inconclusive: 28.2 µM [inhibitor, partial curve]
2 | Cc1c(Cc2ccccc2)c(=O)oc2c(C)c(OCc3nn[nH]n3)ccc12 | inconclusive: 31.6 µM [inhibitor, partial curve]
3 | O=C1CC(N2CCN(c3ccccn3)CC2)C(=O)N1CC(c1ccccc1)c1ccccc1 (centres undefined) | inactive
4 | COC(=O)c1ccccc1SC1CC(=O)N(c2ccccc2)C1=O (centres undefined) | inactive
5 | CC(C)Oc1cccc(C(=O)C2CCCN(Cc3cnn(C(C)C)c3)C2)c1 (centres undefined) | inactive
6 | Cc1cccn2c(=O)c(/C=C(\C#N)C(=O)NCc3ccco3)c(N3CCCCC3)nc12 | inconclusive: 17.8 µM [inhibitor, partial curve]
7 | CCC(C)NC(=O)C1CCCCN1S(=O)(=O)c1ccc(F)cc1 (centres undefined) | inactive
8 | CCOC(=O)c1cnc2c(C(=O)OC)cccc2c1NCc1ccco1 | inconclusive: 39.8 µM [inhibitor, single point]
9 | O=C(COc1ccc([N+](=O)[O-])cc1)NCCC1=CCCCC1 | inactive
10 | Cc1cc2oc(C(=O)NC3CCS(=O)(=O)C3)c(C)c2cc1C (centres undefined) | inconclusive: 28.2 µM [inhibitor, partial curve]
11 | CCN(CC)CCn1c2ccccc2c2cnc(N=CN(C)C)c(C#N)c21 | inconclusive: 28.2 µM [inhibitor, partial curve]
12 | O=Cc1cccc(OC(=O)c2ccc(Cl)cc2Cl)c1 | inactive
13 | Cc1nc(NS(=O)(=O)c2ccccc2C)c2c3c(sc2n1)CCC3 | inconclusive: 31.6 µM [inhibitor, partial curve]
14 | CCn1c(C)c(C(C)=O)c(N2CCN(c3ccc(OC)cc3)CC2)nc1=S | inactive
15 | COc1ccc(CCNc2oc(-c3ccc(C)cc3)nc2C#N)cc1OC | inconclusive: 31.6 µM [inhibitor, partial curve]
16 | CC[n+]1c(/C=C/C=C/N(C(C)=O)c2ccccc2)sc2cc(OC)ccc21 | inconclusive: 35.5 µM [inhibitor, single point]
17 | COc1cc(N2CCCC2)ccc1C=O | inactive
18 | COCCSc1ccccc1C(=O)Nc1cc(C)on1 | inconclusive: 39.8 µM [inhibitor, single point]
19 | Cc1cc([N+](=O)[O-])ccc1-c1ccc(C2Nc3ccccc3C(=O)N2O)o1 (centres undefined) | active: 28.2 µM
20 | CCOC(=O)C1(Cc2ccccc2)CCN(Cc2cccc(OC)c2O)CC1 | inactive
21 | O=C(NCCc1ccc(Cl)cc1)c1cc2ccccn2n1 | inconclusive: 20 µM [inhibitor, partial curve]
22 | Cc1ccc2c(c1)C(N1CCCC1=O)CC(c1ccco1)N2 (centres undefined) | inconclusive: 31.6 µM [inhibitor, partial curve]
23 | Nc1c(Cl)cc(Cl)cc1C(=O)OCC(=O)NC1CC1 | inconclusive: 31.6 µM [inhibitor, partial curve]
24 | CCOc1cc(C2Nc3ccccc3C(=O)N2c2ccccc2OC)ccc1O (centres undefined) | inconclusive: 28.2 µM [inhibitor, partial curve]
25 | c1cnc2c(SCc3ccc(-c4nnco4)cc3)cccc2c1 | inconclusive: 25.1 µM [inhibitor, partial curve]

Row | Structure (SMILES) | Potency
26 | NCCn1c(-c2ccccc2)cc(C(=O)O)c1-c1ccccc1F | inconclusive: 28.2 µM [inhibitor, partial curve]
27 | COc1ccc(C2CC(c3ccccc3)=NN2C(=O)c2cccs2)cc1 (centres undefined) | inactive
28 | COc1cccc(C(=O)Nc2nnc(-c3ccc(F)cc3)o2)c1 | inconclusive: 25.1 µM [inhibitor, single point]
29 | COC(=O)c1cc(NC(=O)c2ccc(-c3ccccc3)cc2)ccc1Cl | inconclusive: 39.8 µM [inhibitor, single point]
30 | COc1ccc(C(=O)CSc2[nH]c(=O)cc(C(F)(F)F)c2C#N)cc1 | inactive
31 | Cc1nc(NC(=O)CCl)sc1C(=O)N(C)C | inactive
32 | CCn1c(NN)nc2sc3c(c2c1=O)CCC3 | inconclusive: 25.1 µM [inhibitor, single point]
33 | Cc1cc(=O)oc2cc(OC(C)C(=O)NCC3CCCO3)ccc12 (centres undefined) | inconclusive: 20 µM [inhibitor, partial curve]
34 | COc1ccccc1C1=NN(C2=NN=C(N)Cc3ncnn32)C(O)(C(F)(F)F)C1 (centres undefined) | inconclusive: 31.6 µM [inhibitor, partial curve]
35 | COCCNC(=O)CCCn1c(=O)c2cc(OC)c(OC)cc2n(CC(=O)Nc2ccc(C)c(F)c2)c1=O | inconclusive: 25.1 µM [inhibitor, partial curve]
36 | O=C(Nc1ccccc1)Nc1ccccc1NS(=O)(=O)c1cccs1 | inactive
37 | CN(C)S(=O)(=O)c1ccc(N2CCCC2)c(C(=O)Nc2nc(-c3ccc(F)c(F)c3)cs2)c1 | inconclusive: 22.4 µM [inhibitor, partial curve]
38 | O=S(=O)(CCN1CCN(C(c2ccccc2)c2ccccc2)CC1)C(F)(F)F | inactive
39 | COc1ccc(/C=C/C(=O)N2CCCc3ccccc32)cc1 | inactive
40 | O=C(NCc1ccco1)c1cccc(NS(=O)(=O)c2cccc(F)c2)c1 | inactive
41 | CCOc1nc(CC)nc(NC(=O)NS(=O)(=O)c2ccccc2Cl)n1 | inconclusive: 28.2 µM [inhibitor, single point]
42 | O=C1c2cccc3cccc(c23)C(=O)N1Cc1ccco1 | inconclusive: 35.5 µM [inhibitor, single point]
43 | CCc1cc2c(=O)n3c(nc2s1)-c1[nH]c2ccc(OC)cc2c1CC3 | inconclusive: 3.16 µM [inhibitor, partial curve]
44 | O=c1c2c(nc3cc(-c4cccc(Cl)c4)[nH]n13)CCCC2 | inconclusive: 8.91 µM [inhibitor, partial curve]
45 | O=C(N/N=C/C(Br)=C\c1ccccc1)c1cccs1 | inactive
46 | COc1cccc(Nc2nc3ccc(OC)cc3s2)c1 | inactive
47 | Cc1ccc(/C=C/C(=O)NCc2cccs2)o1 | inconclusive: 35.5 µM [inhibitor, single point]
48 | O=C(O)c1ccccc1NC(=S)NC(=O)c1cccc2ccccc12 | inconclusive: 31.6 µM [inhibitor, partial curve]
49 | CC(C)OC(=O)/C(C#N)=C/c1ccc(-c2ccc(SC(F)F)cc2)o1 | inconclusive: 39.8 µM [inhibitor, single point]
50 | COc1ccc(S(=O)(=O)N(CC(=O)N2CCN(c3ccccc3OC)CC2)c2ccccc2)cc1 | inactive

Row | Structure (SMILES) | Potency
51 | O=C(O)CC1(CC(=O)NCc2csc(-c3cccs3)n2)CCCCC1 | inconclusive: 25.1 µM [inhibitor, partial curve]
52 | COc1cc2ccccc2nn1 | inconclusive: 31.6 µM [inhibitor, partial curve]
53 | O=C(CSc1nc2ccccc2c(=O)n1-c1ccc(F)c(Cl)c1)Nc1cccc(S(=O)(=O)N2CCOCC2)c1 | inconclusive: 14.1 µM [inhibitor, partial curve]
54 | CN(C)CCNC(=O)c1cccc(S(=O)(=O)Nc2ccc(F)cc2)c1 | inactive
55 | Fc1ccc(-n2c(-c3ccco3)nc3nc4ccccc4nc32)cc1 | inconclusive: 15.8 µM [inhibitor, partial curve]
56 | CN1c2ccccc2N(C)C1(C)c1cccc2ccccc12 | inconclusive: 31.6 µM [inhibitor, partial curve]
57 | COc1ccc(CCN2CN(S(=O)(=O)c3ccc(OC)cc3)c3nc4ccccc4nc32)cc1 | inconclusive: 31.6 µM [inhibitor, partial curve]
58 | CCN1C/C(=C/c2ccc(OC)c(O)c2)C(=O)/C(=C/c2ccc(OC)c(O)c2)C1 | inactive
59 | CCOC(=O)c1ccccc1Nc1cc(C)nc2nc(C)nn12 | inactive
60 | CSc1ccc(C2c3[nH]c4ccccc4c3CCN2C(=O)c2cc(C)n(C)n2)cc1 (centres undefined) | inconclusive: 39.8 µM [inhibitor, single point]
61 | Cc1ccc(C(=O)CSc2nnc(-c3cccs3)n2C)o1 | inactive
62 | CCN1CCN(CCCNC(=O)c2cn(CCOC)c(=O)c3c2c2ccccc2n3C)CC1 | inconclusive: 25.1 µM [inhibitor, partial curve]
63 | O=C(Oc1ccc2c(=O)c(Cl)coc2c1)c1ccncc1 | inconclusive: 31.6 µM [inhibitor, partial curve]
64 | Cc1ccc(-c2csc(NC(=O)Cc3ccc(F)cc3)n2)o1 | inactive
65 | COc1ccc2cc(/C=N/NC(=O)CN(c3ccccc3)S(=O)(=O)c3ccccc3)c(Cl)nc2c1 | inconclusive: 28.2 µM [inhibitor, partial curve]
66 | CCOC(=O)CNC(=O)C(=O)c1c(O)[nH]c2ccccc12 | inactive
67 | CNC(=S)NNC(=O)c1sc2cc(C(F)(F)F)cnc2c1-c1ccccn1 | inconclusive: 31.6 µM [inhibitor, partial curve]
68 | COc1ccc(/C(C#N)=C/c2ccccn2)cc1 | inconclusive: 28.2 µM [inhibitor, partial curve]
69 | COc1ccc(Nc2nc(-c3ccc4c(c3)NC(=O)CO4)cs2)cc1 | inactive
70 | Cc1ccc(C)c(NC(=O)c2ccc(OC(=O)c3ccco3)cc2)c1 | inconclusive: 39.8 µM [inhibitor, single point]
71 | Cn1c(-c2cccs2)[n+](C)c2ccccc21 | inconclusive: 31.6 µM [inhibitor, partial curve]
72 | Cc1cc2nc(CS)[nH]c2cc1C | inactive
73 | N[C@@H](Cc1c[nH]c2ccc(O)cc12)C(=O)O | inconclusive: 39.8 µM [inhibitor, single point]
74 | O=[n+]1cc(-c2cc3ccccc3o2)n([O-])c2c1CCCC2 | inconclusive: 39.8 µM [inhibitor, single point]
